Data as given in PubChem BioAssay AID1963576 (National Center for Advancing Translational Sciences (NCATS), 2024).
The whole screen tested about 46,000 compounds, of which about 60 (0.1%) were called active. Not shown: some 3% with an inconclusive outcome. Calls follow the shape of the dose curve; as a rule, active = well fitted inhibition curve with a large enough effect; inconclusive = small, poorly fitted or top-dose-only effect; inactive = no such curve, though single readings can be large or run the other way. This is one part of the list.

assay: Primary qHTS assay for Inhibitors of ovarian cancer metastasis using an organotypic tumor microenvironment (TME) model.; also: nearly all actives have a fitted effect of over 65% in size;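 as to activity change, negative = inhibition: plate controls were DMSO wells for no effect and tomatine positive control wells for full effect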; conditions: SKOV3ip1-GFP adhesion/invasion on 3D omental model, fluorescence; series mostly up to 45.8 µM; activity change, negative = inhibition: at the top concentration
Summary of the method: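 qHTS, 4-pt dose (0.36-46 umol/L); SKOV3ip1-GFP, 1,200 cells/well, no FBS; primary omental fibroblast/mesothelial co-culture 48 h pre-grown; 2 h RT + 16 h 37 C; PBS wash, 4% PFA; GFP count 488/509 nm.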

Activity change, negative = inhibition, inactive:
Cc1cc(C)cc(-n2ccn(Cc3ccc(F)cc3)c(=O)c2=O)c1 -2.3%
Cc1ccc(-c2cn(-c3ccc(Cl)cc3)c(S(=O)(=O)CC(=O)Nc3ccccc3)n2)cc1 -4.36%
COc1ccc(NC(=O)CC2C(=O)N(c3cccc(OC)c3)C(=O)N2Cc2ccc3c(c2)OCO3)cc1 (stereo not given) 1.88%
O=C(CC1N=C2c3ccccc3N=C(SCC(=O)Nc3ccccc3F)N2C1=O)NCc1cccs1 (stereo not given) 19.1%
Cc1ccc(CNC(=O)CCCN2C(=O)COc3ccc(C)cc32)cc1 -3.8%
Fc1ccc(Br)cc1C1C=C(c2ccc(Br)cc2)Nc2nnnn21 (stereo not given) 2.33%
CC1CCc2c(sc(NC(=O)c3cc(-c4ccc(F)cc4)on3)c2C(N)=O)C1 (stereo not given) 1.88%
Cc1ccc2sc(N(Cc3cccnc3)C(=O)C3COc4ccccc4O3)nc2c1C (stereo not given) 18.4%
Cc1ccc(NC(=O)c2c(NC(=O)c3ccccc3)sc3c2CCC3)cc1 1.59%
CCN(CC)CCNC(=O)c1ccc(-n2c(-c3ccccc3)cc3c2CCCC3)cc1 -7.89%
COc1cccc(CNC(=O)CCCn2nc(C)c3c(C)n(-c4ccc(C)cc4)nc3c2=O)c1OC -28.9%
CC(C)Cn1c(=O)c2sccc2n2c(CCCC(=O)NC3CCCCC3)nnc12 -2.31%
CCc1ccc(CN(C(=O)c2cc(=O)c3ccc(C)cc3o2)C2CCS(=O)(=O)C2)cc1 (stereo not given) -9.59%
Cc1ccc(CN(Cc2ccco2)c2cnc(S(C)(=O)=O)nc2C(=O)Nc2ccccc2Br)o1 -12.3%
Cc1cc(C)cc(NC(=O)Cn2cc(C(=O)c3ccccc3)c(=O)c3ccc(C)nc32)c1 -1.77%
Cn1c(=O)c2nc(SCC(=O)Nc3ccc(Cl)c(Cl)c3)n(C)c2n(C)c1=O 8.85%
CCCCc1ccc(NC(=O)C2(C)Cc3ccccc3C(=O)O2)cc1 (stereo not given) -7.53%
COc1ccc(N(C)C(=O)c2cc(S(=O)(=O)N3CCc4ccccc43)cn2C)c(OC)c1 -12.6%
Cc1cccc(-c2nc(C(N)=O)c3c(n2)n(-c2ccc4c(c2)OCO4)c(=O)n3C)c1 -11.6%
COc1ccc(CNC(=O)Cn2nc(C)c3c(C)n(-c4ccccc4)nc3c2=O)cc1OC -1.04%
O=C(Nc1ccc(Cl)cc1)c1cc2c(-c3ccccc3)nn(-c3ccccc3)c2s1 1.75%
COC(=O)CN1C(=O)C(O)(CC(=O)c2ccc(F)cc2)c2ccccc21 (stereo not given) 5.37%
CC(C)Cn1cc(NC(=O)NCc2ccccc2Cl)c2ccccc2c1=O -11.8%
CC(NC(=O)C1CCN(S(=O)(=O)c2ccc3nc4c(c(C(=O)O)c3c2)CCCC4)CC1)c1ccccc1 (stereo not given) -0.634%
CCc1ccc(-n2c(SCc3cccc(F)c3)nc3[nH]ncc3c2=O)cc1 7.35%
COc1ccc(-c2cc(C(=O)Nc3sc4c(c3C#N)CCCC4)no2)cc1OC -3.61%
COc1cccc(NC(=O)c2ccc3nc(Cc4ccccc4)oc3c2)c1 -0.243%
Cc1ccc(NC(=O)CCS(=O)(=O)c2cc(Br)cc3c2N(C(=O)C2CC2)CC3)cc1 7.23%
O=C(CSc1oc(-c2ccccc2)nc1S(=O)(=O)c1ccccc1)c1ccccc1 4.52%
COC(=O)c1cc(NS(=O)(=O)c2cc(Br)cc3c2N(C(C)=O)CC3)cc(C(=O)OC)c1 2.3%
Cc1ccc(-n2c(-c3ccco3)nc3c(cnn3-c3ccccc3C)c2=O)cc1 13.1%
CCn1c(=O)cc(OCC(=O)Nc2ccc(C)c(F)c2)c2ccccc21 -5.54%
Cc1ccc(Cn2c(SCc3ccc(C(=O)NC4CCCC4)cc3)nc3ccncc32)cc1 -10.1%
Cc1ccc2nc(NCCc3ccccc3)c3nncn3c2c1 -5.48%
COc1ccc(-c2ccc(CCC(=O)O)n2CC(=O)Nc2cccc(C(F)(F)F)c2)cc1 2.75%
Cc1ccc(C(=O)Nc2ccc3oc(-c4ccncc4)nc3c2)c(Cl)c1 1.69%
Cc1nnc(NC(=O)C(=O)c2cc(C)n(-c3ccc(C)c(C)c3)c2C)s1 2.15%
CCCC(=O)c1ccc(OC(=O)c2c(-c3ccccc3Cl)noc2C)cc1 2.31%
COc1ccccc1C(=O)NC1=NC(c2ccc(Br)cc2)CC(=O)N1 (stereo not given) 1.47%
COc1ccccc1-c1nc(CNC(=O)Nc2ccccc2)c(C)o1 4.61%
OCCCc1nc2n(n1)C(c1cccc(Cl)c1)C=C(c1ccccc1)N2 (stereo not given) 9.96%
CCOc1ccc(-c2cc(C(=O)NCCc3ccc(Cl)cc3)c3ccccc3n2)cc1 -11.5%
CCOC(=O)c1c(NC(C)=O)c2c3c(sc2n1Cc1nc(-c2cccc(C)c2)oc1C)CCCC3 4.44%
CCCc1cc(C(=O)Nc2c(C)nn(Cc3ccc(Cl)c(Cl)c3)c2C)no1 -8.45%
CCCCCCNC(=O)n1cc(F)c(=O)[nH]c1=O -6.83%
O=[N+]([O-])c1cc(-c2nc(-c3ccccc3)no2)ccc1NC1CCCC1 -2.34%
CC(=O)c1ccc(NC(=O)Cn2c(=O)oc3cc(S(=O)(=O)N4CCCCC4)ccc32)cc1 4.38%
Cc1ccc2c(c1)C(C)(c1ccccc1)CC(C)(C)N2C(=O)c1ccc(F)cc1 (stereo not given) -0.659%
COc1ccc(-c2nc(CNC(=O)NC3CCCCC3)c(C)o2)c(OC)c1 0.658%
CC1=C(c2ccc(C)cc2)S(=O)(=O)N(Cc2ccc(C(=O)NCc3ccccc3F)cc2)C1=O -0.319%
CCOC(=O)c1cc2c(=O)n3ccccc3nc2n(Cc2ccco2)c1=NC(=O)c1ccc(F)cc1 15.7%
O=C(CCCn1c(=O)[nH]c2ccccc2c1=O)N1CCN(c2ccccc2)CC1 -10.7%
COc1cc(OC)c(NC(=O)Cn2cnc3c(nc4n3CCCCC4)c2=O)cc1Cl -1.39%
CCN(CCCNC(=O)Cn1ncc2c3ccccc3n(C)c2c1=O)c1cccc(C)c1 -9.06%
Cc1ccccc1C(=O)n1nc(-c2cccnc2)nc1NCc1ccc(F)cc1 -12.9%
O=C(Nc1cccc(Cl)c1)c1cc(S(=O)(=O)N2CCC3(CC2)OCCO3)ccc1F 3.43%
O=C(CN1CCN(C2CCCCC2)C(=O)C1=O)Nc1ccc(Cl)cc1 -12.7%
Cc1ccc(-n2ncc3c(N4CCCCC4)ncnc32)cc1 -11.7%
COc1ccc(Cl)cc1NC(=O)c1sc2nc3c(cc2c1N)CN(C)CC3 -2.09%
CCOc1ccccc1NC(=O)Cn1c(=O)n(Cc2ccccc2)c(=O)c2c3c(sc21)CN(C(C)=O)CC3 -9.62%
CC(C)CCN1C(=O)c2ccccc2CC1(C)C(=O)NC1CCCCC1 (stereo not given) -5.81%
COc1ccc(OC)c(NC(=O)Cn2c(CCC(=O)O)ccc2-c2ccccc2)c1 -0.563%
CCC(=O)Nc1ccccc1C(=O)OCc1cc(=O)n2cc(C)sc2n1 -0.978%
O=C(Nc1c(C(=O)N2CCN(c3ccccc3)CC2)oc2ccccc12)c1ccccc1F 11.5%
Cc1cccc(N(C)C(=O)c2cc3c(=O)oc4ccc(C)cc4c3s2)c1 15.4%
CCCN1CCN(C(=O)Cn2ncc3c4ccccc4n(Cc4cccc(Cl)c4)c3c2=O)CC1 -2.38%
CCOC(=O)c1cccc(NC(=O)CC2C(=O)N(c3ccc(F)cc3)C(=O)N2Cc2cccc(OC)c2)c1 (stereo not given) 1.62%

outcome, inactive:
Cc1cc(C)cc(NC(=O)C2CCN(S(=O)(=O)c3cccc(-c4noc(C)n4)c3)CC2)c1
COc1ccc(S(=O)(=O)c2nnn(-c3ccc(C)c(Cl)c3)c2C)cc1
Cc1cccc(NC(=O)C(=O)NCCc2csc(-c3ccc(C(F)(F)F)cc3)n2)c1C
CC1=Nc2cc(C(=O)NC(C)C)ccc2Sc2ccc(C)cc21
CCc1ccc(C2CC(=O)Oc3c2c(=O)n(C)c2ccccc32)cc1 (stereo not given)
Cc1nn(CC(=O)N2CCCCC2)c(=O)c2cc3occc3n12
Cc1ccc(Cl)cc1NC(=O)CCS(=O)(=O)c1ccc2c(c1)n(C)c(=O)c(=O)n2C
Cc1ccc(-n2c3nc(=O)[nH]c(=O)c-3cc3c(C)nn(-c4ccccc4)c32)c(C)c1
CCOC(=O)CSc1nc2ccc(NC(=O)COc3ccccc3C)cc2s1
COCCn1c(=N)c(C(=O)NCc2ccco2)cc2c(=O)n3cc(C)ccc3nc21
Cc1nn(-c2ccccc2)c(OC(=O)C(C)(C)C)c1Sc1ccccc1
CCc1ccc(-n2c(=O)c3cccnc3n2CC(=O)Nc2ccccc2C(F)(F)F)cc1
COc1ccc(-c2cn3c(n2)sc2cc(C(=O)Nc4cc(OC)cc(OC)c4)ccc23)cc1
Cc1cccc(-n2c(=O)c3c(c4cc(C)ccc4n3C)n(CC(=O)Nc3ccc(C)cc3C)c2=O)c1
COc1ccc(N2CCN(C(=O)c3ccc4c(Cl)c5c(nc4c3)CCCC5)CC2)cc1
COc1ccc(CN2C(=O)N(c3ccc(C)cc3)C(=O)C2CC(=O)Nc2ccccc2)cc1OC (stereo not given)
O=C1CCCc2[nH]c(=O)c(-c3nc(-c4cccc([N+](=O)[O-])c4)cs3)cc21
Cc1ccc(C(=O)c2sc(Nc3ccc(F)cc3)nc2N)c(C)c1
CCCCCCc1cc2cc(-c3cn4c(n3)sc3cc(OC)ccc34)c(=O)oc2cc1O
O=C(CN1C(=O)COc2ccc(S(=O)(=O)N3CCOCC3)cc21)N1CCN(c2ccc(Cl)cc2)CC1
O=S(=O)(NCCc1cn2ccsc2n1)c1ccc(Cl)cc1
CCOC(=O)c1ccccc1NC(=O)COc1cc(=O)n(CC)c2ccccc12
COc1ccc(NC(=O)CC(C)S(=O)(=O)c2ccc3c(c2)NC(=O)CO3)cc1OC (stereo not given)
Cc1cccc(C)c1NC(=O)Cn1c(=O)cc(C)c2c(C)nn(-c3cccc(Cl)c3C)c21
O=C(CCC1N=C2c3ccccc3N=C(SCc3ccc(Cl)cc3)N2C1=O)NC1CCCCC1 (stereo not given)
Cc1ccc(CCNC(=O)c2cc3cc(S(=O)(=O)N4CCCCC4)ccc3n2C)cc1
CCOc1ccc(-n2nc3ccc(NC(=O)c4ccc(C)cc4C)cc3n2)cc1
CC1CC(=O)N(CC(=O)Nc2ccc(OC(F)(F)F)cc2)c2ccccc2S1 (stereo not given)
